Source: ChEMBL document CHEMBL5308541, “MAIP: An Open-Source Tool to Enrich High-Throughput Screening Output and Identify Novel, Druglike Molecules with Antimalarial Activity” (ACS Med Chem Lett, 2023)
About 410 (8.5%) of roughly 4,800 compounds showed an effect of 50% or more. Some of the results follow.

tested on: Plasmodium falciparum; assay: Confirmatory screen in NF54 pLDH assay, in single point, at 2uM, 72h; type: functional, Erythrocyte; settings: timepoint 72 hour

Compound | % Inhibition
Fc1ccc(N2CC[C@H](CN3CCC(c4c[nH]c5ccccc45)(c4c[nH]c5ccccc45)CC3)C2)cc1 | 102%
O[C@@H](CNCc1ccc2c(c1)CCO2)c1ccc(F)c(F)c1 | 74%
CCN(C(C)=O)c1nc(CN2CC=C(c3c[nH]c4cc(F)ccc34)CC2)cs1 | 20%
Cc1ccc(CNc2ncnc(N)c2Cl)c(N2CCCC2)n1 | 8%
CN1CCC(N(C)c2ccccc2CNC[C@@H](O)c2cccc(Cl)c2)CC1 | 17%
CC(C)(C)c1ccc(CNC[C@H](O)c2ccc(F)cc2F)cc1 | 91%
COc1ccc(CCNCc2ccc3[nH]cnc3c2)c(Cl)c1 | 48%
Oc1ccc(C2=CCN(Cc3cccc4[nH]ccc34)CC2)cc1 | 38%
CCCOc1cncc(-c2ccc3c(c2)CNCC3)c1 | 8%
CN1C2CCC1CC(OC(=O)C1CCC(C(=O)OC3CC4CCC(C3)N4C)(c3ccccc3)c3ccccc31)C2 (configuration not stated) | 63%
CN(C)CC12CNCC1CN(c1ccnc3cc(Cl)ccc13)C2 (configuration not stated) | 97%
CN1CCN(c2ccc(C(F)(F)F)cc2NCc2cnc[nH]2)CC1 | 92%
